Target: WDR5 (Homo sapiens, UniProt P61964)
Test: biochemical
Assay type: binding
Conditions: WDR5-His tag (Δ23, residues 24-334) 2 nM; 10mer-Thr-FAM probe 150 nM; Tb-anti-HIS 1 nM; 60 min, room temperature; read-out: Ki for Inhibition of WDR5 by TR-FRET assay

Ki	Compound
0.63 nM	Cc1nccn1Cc1cc2c(c(-c3cn(C)nc3C(F)(F)F)c1)CCN(CC1CCOCC1)C2=O [Example 173, 7-((2-Methyl-1H-imidazol-1-yl)methyl)-5-(1-methyl-3-(trifluoromethyl)-1H-pyrazol-4-yl)-2-((tetrahydro-2H-pyran-4-yl)methyl)-3,4-dihydroisoquinolin-1(2H)-one]
< 0.05 nM	Cc1cc([C@H](C)N2CCc3c(cc(Cn4ccnc4C)cc3-c3cn(C)nc3C)C2=O)ccc1F [Example 146, (S)-5-(1,3-Dimethyl-1H-pyrazol-4-yl)-2-(1-(4-fluoro-3-methylphenyl)ethyl)-7-((2-methyl-1H-imidazol-1-yl)methyl)-3,4-dihydroisoquinolin-1(2H)-one]
0.065 nM	Cc1ccnc([C@@H](C2CC2)N2CCc3c(cc(Cn4ccn(C)c4=N)cc3-c3ccc(F)cc3C)C2=O)c1 [Example 33, (R)-2-(Cyclopropyl(4-methylpyridin-2-yl)methyl)-5-(4-fluoro-2-methylphenyl)-7-((2-imino-3-methyl-2,3-dihydro-1H-imidazol-1-yl)methyl)-3,4-dihydroisoquinolin-1(2H)-one]
